Laboratory results: the supplement of paper PMC4466236
Whole data set: some 33,000 sequences, median “E-score (dimensionless, -0.5 to 0.5)” near -0.058, cut for the highest 2% near 0.35. This is one part of the list.

The sequences below were run on MvaT (assay: PBM 8-mer E-score (mean of HK and ME arrays) (E-score (dimensionless, -0.5 to 0.5)); higher = stronger relative binding preference; most listed sequences are background and not binding sites).
Experimental: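 Protein binding microarray: GST-tagged full-length MvaT (P. aeruginosa PAO1) bound to two universal double-stranded 60-mer arrays (ME and HK), each with a constant 25-mer primer and a variable 35-mer region covering all 8-mers. The 8-mer E-score (rank-based, range -0.5 to 0.5, >0.45 = specific binding) is the mean of the two arrays.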

Row | Sequence | PBM 8-mer E-score
1 | CGAACAGA | 0.106
2 | ACCGACAT | 0.0669
3 | GTCGCGAA | -0.262
4 | ACCAAACC | 0.102
5 | GTCTATGA | 0.0453
6 | CCGGCAAG | -0.227
7 | AAATATTG | 0.306
8 | AATGATTA | 0.272
9 | AAGGATCC | -0.244
10 | GGCGACAC | -0.0493
11 | CGTCTCGA | -0.328
12 | CACCGTTA | 0.0907
13 | AGGCTAAA | -0.0289
14 | AAGGATGT | 0.101
15 | GGCGGGTA | -0.104
16 | AGTTCATC | 0.06
17 | CAAAACAA | 0.165
18 | AGGCGCTA | -0.3
19 | CCGCCCAC | -0.254
20 | CACTCATG | -0.225
21 | CTTGCACC | -0.0295
22 | ACGCACAG | -0.209
23 | GACATTCC | 0.0456
24 | GTTGTGAA | 0.0703
25 | ACCAAGTA | 0.11

Row | Sequence | PBM 8-mer E-score
26 | TCCTCTCA | -0.17
27 | GATGGAAA | -0.0898
28 | ACGGGAAT | 0.147
29 | CTATTGTC | 0.12
30 | ATTTACTA | 0.245
31 | GTATATGA | 0.245
32 | ACGGCAGG | -0.153
33 | CTCTCCCA | -0.277
34 | GTTGGAGA | -0.0131
35 | CCGGATAA | 0.0701
36 | GGGTTCAA | -0.0571
37 | ATTTTTCG | 0.179
38 | GATGGGGC | -0.215
39 | ACCCGCGC | -0.241
40 | CGACCTAC | -0.289
41 | CCAAACTC | 0.0276
42 | AACGCTCG | -0.192
43 | CCGTACAG | -0.147
44 | AAAATCGC | 0.0598
45 | CGGGGAAC | -0.175
46 | GGCCTACA | -0.126
47 | GCCCACCC | -0.118
48 | CTGGGGTA | 0.0191
49 | CTGTTCGC | -0.0873
50 | GTTACTAA | 0.252

Row | Sequence | PBM 8-mer E-score
51 | ATGGCCAT | -0.141
52 | AATCGCCT | -0.165
53 | ATACCGTA | 0.135
54 | GGGTCTAA | -0.173
55 | GTCGGGTA | -0.152
56 | CTTAGATA | 0.152
57 | GCGTTAGC | -0.247
58 | ACCCGAAG | -0.237
59 | CACTTTCC | -0.0236
60 | TGTGTAAA | 0.188
61 | ACCGTAGT | -0.0817
62 | ATCATAGG | -0.112
63 | AACAATCA | 0.205
64 | ATGAATTC | 0.164
65 | AAACCCAA | 0.0762
66 | CAATCACA | 0.0485
67 | GTCTGGCA | -0.105
68 | AACTTAGG | 0.182
69 | GACGTTAA | -0.00377
70 | TCAACTAA | 0.205
71 | ACGATAGG | -0.176
72 | AGAGTAAC | 0.0298
73 | CCATACAA | 0.0466
74 | AAAAATCA | 0.0153
75 | GTTCAGGA | 0.0183

Row | Sequence | PBM 8-mer E-score
76 | CCGAAAAA | 0.0426
77 | TGTTCAAA | 0.123
78 | AGGTGTCA | -0.255
79 | GGGTGCGA | -0.091
80 | CTTAGGAA | -0.0904
81 | GAGACGAC | -0.321
82 | CAAATTAC | 0.218
83 | CTATATCA | 0.16
84 | GGTGGACA | -0.0734
85 | AAATTCGG | 0.184
86 | ATAGAGTG | 0.0326
87 | CTTGATTA | 0.143
88 | ATGACCAG | -0.114
89 | AGATGAAC | -0.0155
90 | ACGTTCGA | -0.171
91 | AAAATGTA | 0.206
92 | CTTTCATA | 0.206
93 | AAGCCTCC | -0.309
94 | GTGACAAC | -0.0216
95 | TAGGGAAA | 0.109
96 | CTGTGTAA | 0.0513
97 | AATCATAT | 0.244
98 | CAGGATAC | 0.0289
99 | GAAAGACC | -0.188
100 | CGACTCTC | -0.224

Row | Sequence | PBM 8-mer E-score
101 | ACGGTTCG | -0.0531
102 | GCTAGAGA | -0.188
103 | AAAATAGG | 0.107
104 | CCGGCGCC | -0.254
105 | GAGATGAA | -0.165
106 | TATCGAGA | 0.0936
107 | AGAGCAGG | -0.203
108 | GGTAGCCA | -0.126
109 | CCCAGGGG | -0.294
110 | ACAAGACT | 0.0999
111 | AAGTTGCG | 0.272
112 | AATGTTGC | 0.16
113 | ATAGCAAT | 0.206
114 | CGGGGTTA | -0.124
115 | GGTTGCGA | -0.115
116 | AGATTGGC | -0.0202
117 | AAGGCCGC | -0.155
118 | CCCGCTCC | -0.318
119 | CAGGCACG | -0.33
120 | GCTAACCA | -0.0732
121 | AGCCCTAG | -0.252
122 | CGGCTCAA | -0.0692
123 | TCACCTCA | -0.163
124 | TATTGTAA | 0.379
125 | GGATTCAC | -0.0735

Row | Sequence | PBM 8-mer E-score
126 | ATTGGCTG | 0.0902
127 | AGGCCTCC | -0.302
128 | GAGCTTAC | -0.164
129 | GGAGGCCC | -0.342
130 | CGCCGGGC | -0.236
131 | AAGTCGCT | -0.049
132 | ATGCTAAT | 0.156
133 | CATTAAAA | 0.201
134 | CGTGATGA | -0.182
135 | CTTCGAGC | -0.301
136 | AAAATCTC | -0.0772
137 | ATTCGCCA | 0.108
138 | CTGACCAC | -0.0732
139 | GCCAAGAC | -0.161
140 | GCTCTTAA | 0.139
141 | GGGGTAGA | -0.0957
142 | CCTGTGAA | -0.15
143 | GATAGTCA | -0.178
144 | GTATGGAA | 0.123
145 | AATAGCTA | 0.202
146 | CCACCCAG | -0.0954
147 | CCGCCAAA | -0.0702
148 | AACTACAC | 0.168
149 | TACACAAA | 0.0367
150 | GGGCTCCA | -0.168

Row | Sequence | PBM 8-mer E-score
151 | CATATTCC | 0.122
152 | CAGGTACA | -0.0839
153 | ATCTATAA | 0.209
154 | AAAGCATA | 0.0331
155 | GAACCATC | -0.0791
156 | CACGCGGA | -0.0742
157 | CCCTGACG | -0.251
158 | CCCGGGGC | -0.278
159 | ATGTACAC | 0.164
160 | GCGGATAA | 0.184
161 | AACTCAGT | 0.093
162 | GACCAAAA | -0.0649
163 | ATGTAGCA | 0.078
164 | TAAAGTCA | 0.182
165 | TACCAGGA | -0.0685
166 | AACCTCAG | -0.11
167 | AAGCAAGG | -0.114
168 | GAGGATGC | -0.303
169 | GATGCCCA | -0.195
170 | CAAAAGAC | -0.081
171 | ACTATATG | 0.306
172 | TTAGTGAA | 0.217
173 | AGAATCGG | -0.0303
174 | CAAGGCCC | -0.302
175 | CGTACCTA | -0.178

Row | Sequence | PBM 8-mer E-score
176 | CGCAAAAG | 0.0685
177 | TATTGCAA | 0.222
178 | CTAGAGAA | 0.000547
179 | CTTAGAGA | -0.00481
180 | GGAAGCAC | -0.165
181 | AGGGGAAT | -0.166
182 | CGACTCAC | -0.183
183 | CATATCCC | -0.031
184 | TAAATCCA | 0.188
185 | ATACGTGG | 0.0295
186 | GGTTTGAC | -0.00845
187 | CGTAGAAG | 0.0195
188 | CTCCGCAG | -0.285
189 | CTTCATTC | -0.072
190 | ATATCTGG | 0.0475
191 | ACTACGAC | -0.111
192 | CTGCCTTA | 0.0495
193 | ATCGGATA | 0.062
194 | CACATTGC | -0.157
195 | GCATATAA | 0.374
196 | CTCGCTCA | -0.119
197 | CTGAGCTC | -0.258
198 | CGGGGAGA | -0.156
199 | CCCTAAAG | -0.0478
200 | CACCCTAC | 0.0047

Row | Sequence | PBM 8-mer E-score
201 | CTGGCGCC | -0.149
202 | CGTGATCC | 0.0119
203 | AACTGGCT | 0.0131
204 | AGGGCCCA | -0.304
205 | ACCCATCA | -0.109
206 | CGAAGGCC | -0.307
207 | AGAGCGGG | -0.223
208 | GAGTTGAA | -0.0242
209 | AATAAATC | 0.319
210 | CCTAATCC | -0.117
211 | AAAAGGCG | 0.0079
212 | GATAAGGC | 0.0444
213 | AGTGAACT | 0.0493
214 | GTCCCCTA | -0.167
215 | CATACGAA | 0.049
216 | CTTCCCGC | -0.212
217 | ACTAAAGG | -0.0127
218 | ATTCACAA | 0.281
219 | CCCCTTCC | -0.388
